Here are results for 90 compounds from PubChem BioAssay AID463173 (ICCB-Longwood Screening Facility, Harvard Medical School, 2010).

The structures appear in SMILES notation. The campaign covered roughly 52,000 compounds. About 1,700 (3.3%) were called active. No stated cut-off is given here; in the data, active means survival mostly below about 52% (no sharp cut-off); inactive means mostly above about 56%. The list shows a part of the results.

The test system of the assay is Wild type. Put plainly: growth inhibition of S. aureus wild type versus tarO mutant, primary screen, teichoic acid synthesis inhibitors, RN4220, OD600 (AID 463173). Conditions: S. aureus RN4220 wild type/DeltatarO growth, OD600, 18 h, active compounds read low, screened at 18.75 µg/mL (by protocol).
`Cn1ccc2cc(S(=O)(=O)N3CCCC(C(=O)NCc4ccccc4)C3)ccc21` (stereo not given): the survival is inactive: 101%. Under `Cc1cccc(-c2noc(-c3ccccc3NC(=O)C3CC(=O)N(c4ccccc4C)C3)n2)c1` (stereo not given) stands inactive: 50%. On to `Cc1cccc(NS(=O)(=O)c2ccccc2)n1`, for which the survival is inactive: 106%. Under `COc1ccc(S(=O)(=O)Nc2cccc(-c3ccc(N4CCC(C)CC4)nn3)c2)cc1OC` stands inactive: 81%; under `Cc1cc(-c2ccc(C)c(S(=O)(=O)NC(c3cccs3)C(C)C)c2)on1` (stereo not given), inactive: 70%.

In the case of `CC12CC(c3ccccc3O1)C(C(=O)NCc1ccccc1)C(=O)N2` (stereo not given), the survival was inactive: 107%. Under `O=C(COc1ccc(F)cc1)OCc1cc(=O)n2nc(C3CCCCC3)sc2n1` stands inactive: 68%; under `COc1ccc(NC(=O)CCSc2nc(-c3ccc(OC)cc3)cc(C(F)(F)F)n2)cc1`, inactive: 77%; under `CC1(C)CC(=O)C2=C(C1)OC(N)=C(C#N)C21CCCCC1`, inactive: 111%. Under `Cc1ccc(NC(=O)Cn2cc(C(=O)C3CC3)c3ccccc32)c(C)c1` stands inactive: 93%; under `CC(C)CCNC(=O)c1ccc2c(c1)NC(=O)C(CS(=O)(=O)Cc1ccc(F)cc1)N2` (stereo not given), inactive: 69%; under `CCc1nnc(SCc2c(F)cccc2Cl)c2cc3sccc3n12`, inactive: 88%. In the case of `COc1ccc(C(C(=O)NCc2ccccc2)N(C(=O)Cn2nnc3ccccc32)c2cccc(OC)c2)cc1` (stereo not given), the survival is inactive: 88%.

On to `CC1=C(C(=O)N2CCN(c3cc(C)ccc3C)CC2)C2(CCC(C)CC2)OC1=O` (stereo not given), for which the survival is inactive: 87%. For `O=S(=O)(NC1CCCC1)c1cccs1` the value was inactive: 118%; for `CCOc1ccc(NC(=O)C2(c3cccs3)CCOCC2)cc1`, inactive: 82%; for `Cc1cc(C)c2sc(NC(=O)c3ccc(S(=O)(=O)N4CCCC4)cc3)nc2c1`, inactive: 32%.

Take `CCOC(=O)c1cccc(NC(=O)CCc2nc3cccnc3n2-c2ccccc2)c1`: the survival is inactive: 130%. As to `COc1ccccc1C(=O)Nc1nc2nc(C)cc(=O)n2[nH]1`, the survival is inactive: 86%. For the compound `O=C(CN1C(=O)COc2ccc(S(=O)(=O)NC3CCCC3)cc21)Nc1ccc(Cl)cc1F`, the survival was inactive: 71%. For `COc1ccc(OC)c(S(=O)(=O)Nc2ccc3c(c2)n(C)c(=O)n3C)c1` the value was inactive: 113%. In the case of `CCOC(=O)c1c(C)oc2ccc(N(C(=O)c3ccncc3)S(=O)(=O)c3ccc(CC)cc3)cc12`, the survival is inactive: 79%. For `CN(C)N1C(=O)CC(NCc2ccccc2)C1=O` (stereo not given) the value was inactive: 99%. For `CCOC(=O)c1c(C)[nH]c(CCC(=O)Nc2cc(Cl)ccc2OC)c1C` the value was inactive: 74%; for `Cc1nc(N2CCOCC2)c2c(C(=O)NCc3ccc(Cl)cc3)c(C)oc2n1`, inactive: 94%.

As to `CN(C)S(=O)(=O)N(CC(=O)Nc1ccc(C(F)(F)F)cc1)c1ccccc1`, the survival was inactive: 82%. For `Cc1ccc(OCCSc2nc3ccc(NC(=O)c4cccs4)cc3s2)cc1` the value was inactive: 102%. Under `COc1cc(OC)cc(C(=O)NCCc2csc3nc(-c4ccccc4F)nn23)c1` stands inactive: 66%; under `Cc1sc(-n2cccc2)c(C(C)NC(=O)Nc2cccc(C(F)(F)F)c2)c1C` (stereo not given), active: 6%.

Turning to `COc1ccc(C(=O)Oc2ccc3oc(=O)sc3c2)cc1`, the survival is inactive: 95%. On to `Cc1ccc(S(=O)(=O)N2CC=C(c3c(C)n(CC(=O)N4CCCC4)c4ccccc34)CC2)cc1C`, for which the survival is inactive: 81%. `COc1cccc(CNC(=O)c2cc(-c3ccc(Cl)cc3)n[nH]2)c1`: the survival was inactive: 136%. For `O=C(CCC(=O)N1CCSc2ccccc21)Nc1ccc(Cl)cc1` the value was inactive: 75%. Under `CCC(CC)c1nn2c(=O)cc(COc3ccc(NC(=O)c4cccc(C)c4)cc3)nc2s1` stands inactive: 129%; under `CCOc1cccc(C(=O)N(Cc2ccc(C)o2)C2CCS(=O)(=O)C2)c1` (stereo not given), inactive: 90%. For `CCN1C(=O)CC(C(=O)NC)SC1=Nc1cc(Cl)c(O)c(Cl)c1` (stereo not given) the value was inactive: 99%; for `COc1ccccc1CNS(=O)(=O)c1cc(Br)cc2c1N(C(=O)C1CC1)CC2`, inactive: 60%.

As for `COc1ccc(CNc2nc(-c3ccc(Cl)cc3)nn2S(=O)(=O)c2ccc(C)cc2)cc1`, the survival was inactive: 64%. `COc1ccc(CNC(=O)c2ccc3c(c2)N(Cc2cc(C)ccc2C)C(=O)CS3)cc1`: the survival was inactive: 77%. For `O=C(NCc1ccncc1)C1CCN(C(=O)c2cccc(Cl)c2)CC1` the value was inactive: 111%; for `CCCCC(CC)C(=O)Nc1ccccc1C#N` (stereo not given), inactive: 116%. For `COc1ccccc1OCC(=O)N(Cc1ccco1)Cc1ccccc1F` the value was inactive: 80%; for `CC(CNC(=O)c1ccc2c(c1)nc1n2CCCCC1)c1ccccc1` (stereo not given), inactive: 83%; for `CCOc1ccc(CC(=O)NC2CC(=O)N(c3cccc(F)c3)C2)cc1` (stereo not given), inactive: 77%. For `O=c1cc(COc2ccc(Cl)cc2Cl)nc2scc(-c3ccccc3)n12` the value was inactive: 90%; for `CCOc1ccc(-n2c(=O)c3c(C)c(C)sc3n(CC(=O)C(C)(C)C)c2=O)cc1`, inactive: 125%; for `O=C1CCCN1CCCNc1ccc(Cl)nn1`, inactive: 116%. For `Cc1cc(NS(=O)(=O)c2ccc(NC(=O)COc3c(C)ccc(C)c3C)cc2)nc(C)n1`, the survival was inactive: 78%. Under `O=C(OC(C(=O)NC1CCCC1)c1cccnc1)C1=Cc2ccccc2OC1` (stereo not given) stands inactive: 111%; under `COc1ccccc1-c1nn2c(=O)cc(CN3CCN(C(=O)Nc4ccc(C)cc4Cl)CC3)nc2s1`, inactive: 83%; under `Cc1ccc(C2C(=O)N(C3CCC(C)CC3)CC(=O)N2C2CCCC2)cc1` (stereo not given), inactive: 70%. Regarding `COc1ccc(CNC(=O)COCc2cc(-c3ccc4c(c3)OCO4)on2)cc1`, the survival is inactive: 87%. For `COc1cc(C(=O)NCC(c2ccco2)S(=O)(=O)c2cccs2)cc(OC)c1OC` (stereo not given) the value was inactive: 63%.

As to `CCc1cccc(C)c1NC(=O)c1ccc2c(c1)CCN2S(=O)(=O)c1ccc(Cl)cc1`, the survival was inactive: 85%. For `CCS(=O)(=O)N1CCc2cc(C(=O)Nc3ccc(Br)cc3F)ccc21` the value was inactive: 109%.

Turning to `Cc1ccc(-n2c(=O)c3c(c4cc(C)ccc4n3C)n(CC(=O)Nc3ccc(F)cc3)c2=O)cc1`, the survival was inactive: 113%. Take `CC(=O)c1ccc(N2CCN(C(=O)c3cn(C)c(=O)c4c3c3ccccc3n4C)CC2)cc1`: the survival was inactive: 95%. For the compound `CCCCC(=O)Nc1nnc(S(=O)(=O)N(C)Cc2ccc(Cl)cc2)s1`, the survival was inactive: 81%.

On to `COc1ccc(N(Cc2cccs2)C(=O)c2ccco2)cc1`, for which the survival is inactive: 82%. Take `COCCCNc1nc2c(c(=O)n(Cc3ccc(F)cc3)c(=O)n2C)n1C`: the survival is inactive: 130%. In the case of `Cc1cc(C)cc(NC(=O)CCc2c(C)nc3nc(CNC(=O)c4cccc(F)c4)nn3c2C)c1`, the survival was inactive: 92%. With `O=C(NCC(c1ccco1)S(=O)(=O)c1cccs1)c1ccccc1` (stereo not given), the survival was inactive: 45%. Under `COc1ccc(N2CCN(S(=O)(=O)c3ccc(CC(C)C)cc3)CC2)cc1` stands inactive: 83%; under `COC(=O)c1cc(NC(=O)c2cc3c(-c4ccccc4F)nn(C)c3s2)cc(C(=O)OC)c1`, inactive: 81%; under `COc1ccc(OC)c(S(=O)(=O)NCC(c2ccc(N(C)C)cc2)N2CCOCC2)c1` (stereo not given), inactive: 59%.

With `CCOC(=O)c1cc2c(=O)n3ccccc3nc2n(Cc2ccco2)c1=NC(=O)c1ccccc1Br`, the survival was inactive: 73%.

For `Cc1ccc(-n2c(C)cc(/C=N/NC(=O)CC3(C)OCCO3)c2C)cc1`, the survival was inactive: 111%. Take `COC(=O)c1cc2oc3ccccc3c2n1Cc1ccc(C)cc1`: the survival is inactive: 82%. Under `Cc1c(Cl)cccc1Nc1nn2c(=O)c3ccccc3nc2s1` stands inactive: 73%; under `Cc1cccc(N2CCN(S(=O)(=O)c3ccc(-c4cnc(C5CC5)o4)cc3)CC2)c1C`, inactive: 68%. For `Cc1ccc(Cn2c(SCC(=O)NCc3ccccc3)nc3ccsc3c2=O)cc1` the value was inactive: 76%; for `Cc1ccccc1-c1noc(-c2ccc(NCC3CCCO3)c([N+](=O)[O-])c2)n1` (stereo not given), inactive: 78%; for `COc1ccccc1CNC(=O)CC(c1ccc(F)cc1)N1Cc2ccccc2C1=O` (stereo not given), inactive: 73%. For `CCOc1ccc(NC(=O)Cn2c(=O)n(CCCC(=O)NCCc3ccc(Cl)cc3)c(=O)c3ccccc32)cc1` the value was inactive: 136%; for `Cc1oc(-c2ccccc2F)nc1CS(=O)(=O)CC(=O)N1CCN(c2ccccc2)CC1`, inactive: 77%.

For `COc1ccc(-c2[nH]c(-c3ccc(O)cc3)nc2-c2ccccc2)cc1`, the survival is active: 0%. For `Cc1ccc([N+](=O)[O-])cc1NC(=O)CN(c1ccccc1)S(=O)(=O)N(C)C` the value was inactive: 69%; for `CCOC(=O)c1cccc(NC(=O)C(C)n2nc(C)c3c(C)n(-c4ccccc4)nc3c2=O)c1` (stereo not given), inactive: 95%. In the case of `Cc1noc(-c2ccc(NCc3ccccc3)c([N+](=O)[O-])c2)n1`, the survival was inactive: 79%.

As to `COc1cccc(CNS(=O)(=O)c2cc3c(cc2C)n(C)c(=O)c(=O)n3C)c1`, the survival is inactive: 132%. For `COc1ccc2nc(NC(=O)c3cc(=O)c4ccccc4o3)sc2c1` the value was inactive: 88%; for `COc1ccc(NC(=O)Cn2c(=O)n(CCc3ccccc3)c(=O)c3ccccc32)cc1`, inactive: 103%.

For the compound `Cc1ccccc1OCC(=O)Nc1cc(-c2cccc(Br)c2)nn1-c1ccccc1`, the survival was inactive: 85%. For `O=C(NCc1nc2cccnc2n1Cc1ccc(F)cc1)c1ccccc1C(F)(F)F` the value was inactive: 73%.

Regarding `CCCCNC(=O)c1c(C)oc2ncn(CC(C)C)c(=O)c12`, the survival is active: 1%.

Turning to `CCOc1ccc(NC(=O)Cn2nc(-c3ccncc3)ccc2=O)cc1`, the survival is inactive: 71%. Under `O=C(c1cccc(Cl)c1)N1CCN(CCc2ccccn2)CC1` stands inactive: 89%; under `COc1ccc(C(=O)N(Cc2ccco2)Cc2ccco2)cc1`, inactive: 83%. As to `Nc1c(-c2nc(-c3ccncc3)no2)nnn1CC(=O)Nc1ccccc1`, the survival was inactive: 87%. For `COc1ccccc1CNCCSc1nnnn1C` the value was inactive: 70%.
